{"source": "the supplement of paper PMC8728848", "test_in_all_cases": "glycan array binding signal (z-score within array); higher = stronger binding", "conditions_in_all_cases": "glycan notation: IUPAC condensed, linker removed", "key": {"[1]": {"molecular_target": "Gal(b1-4)GlcNAc(b1-6)GalNAc", "method_in_brief": "(§1)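 The binding signal is a Z-score computed within each array. Data were drawn from 3228 arrays in the Consortium for Functional Glycomics database, restricted to those with a known protein sequence. Scores were averaged over arrays of the same protein sequence at different concentrations or buffers, and over linkers, and negative values can be taken as non-binding.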"}, "[2]": {"molecular_target": "Gal(b1-4)GlcNAc(b1-6)[Gal(b1-3)]GalNAc", "method_in_brief": "as §1"}, "[3]": {"molecular_target": "Gal(b1-4)GlcNAc(b1-6)[Gal(b1-4)GlcNAc(b1-3)]GalNAc", "method_in_brief": "as §1"}, "Gal(b1-4)GlcNAc6P": {"molecular_target": "Gal(b1-4)GlcNAc6P", "method_in_brief": "as §1"}, "Gal(b1-6)Gal": {"molecular_target": "Gal(b1-6)Gal", "method_in_brief": "as §1"}, "Gal3S(b1-3)GalNAc": {"molecular_target": "Gal3S(b1-3)GalNAc", "method_in_brief": "as §1"}, "Gal3S(b1-3)GlcNAc": {"molecular_target": "Gal3S(b1-3)GlcNAc", "method_in_brief": "as §1"}, "[4]": {"molecular_target": "Gal3S(b1-3)[Fuc(a1-4)]GlcNAc", "method_in_brief": "as §1"}, "Gal3S(b1-4)Glc": {"molecular_target": "Gal3S(b1-4)Glc", "method_in_brief": "as §1"}, "Gal3S(b1-4)Glc6S": {"molecular_target": "Gal3S(b1-4)Glc6S", "method_in_brief": "as §1"}, "Gal3S(b1-4)GlcNAc": {"molecular_target": "Gal3S(b1-4)GlcNAc", "method_in_brief": "as §1"}, "Gal3S(b1-4)GlcNAc6S": {"molecular_target": "Gal3S(b1-4)GlcNAc6S", "method_in_brief": "as §1"}, "[5]": {"molecular_target": "Gal3S(b1-4)[Fuc(a1-3)]Glc6S", "method_in_brief": "as §1"}, "[6]": {"molecular_target": "Gal3S(b1-4)[Fuc(a1-3)]GlcNAc", "method_in_brief": "as §1"}, "[7]": {"molecular_target": "Gal3S(b1-4)[Fuc(a1-3)]GlcNAc6S", "method_in_brief": "as §1"}, "Gal3S4S(b1-4)GlcNAc": {"molecular_target": "Gal3S4S(b1-4)GlcNAc", "method_in_brief": "as §1"}, "Gal3S6S(b1-4)GlcNAc": {"molecular_target": "Gal3S6S(b1-4)GlcNAc", "method_in_brief": "as §1"}, "Gal3S6S(b1-4)GlcNAc6S": {"molecular_target": "Gal3S6S(b1-4)GlcNAc6S", "method_in_brief": "as §1"}, "Gal4S(b1-4)GlcNAc": {"molecular_target": "Gal4S(b1-4)GlcNAc", "method_in_brief": "as §1"}, "Gal4S6S(b1-4)GlcNAc": {"molecular_target": "Gal4S6S(b1-4)GlcNAc", "method_in_brief": "as §1"}, "Gal6P(b1-4)GlcNAc": {"molecular_target": "Gal6P(b1-4)GlcNAc", "method_in_brief": "as §1"}, "Gal6S(b1-3)GlcNAc": {"molecular_target": "Gal6S(b1-3)GlcNAc", "method_in_brief": "as §1"}, "Gal6S(b1-3)GlcNAc6S": {"molecular_target": "Gal6S(b1-3)GlcNAc6S", "method_in_brief": "as §1"}, "Gal6S(b1-4)Glc": {"molecular_target": "Gal6S(b1-4)Glc", "method_in_brief": "as §1"}, "Gal6S(b1-4)Glc6S": {"molecular_target": "Gal6S(b1-4)Glc6S", "method_in_brief": "as §1"}, "Gal6S(b1-4)GlcNAc": {"molecular_target": "Gal6S(b1-4)GlcNAc", "method_in_brief": "as §1"}, "Gal6S(b1-4)GlcNAc6S": {"molecular_target": "Gal6S(b1-4)GlcNAc6S", "method_in_brief": "as §1"}, "GalNAc(a1-3)Gal": {"molecular_target": "GalNAc(a1-3)Gal", "method_in_brief": "as §1"}, "GalNAc(a1-3)GalNAc": {"molecular_target": "GalNAc(a1-3)GalNAc", "method_in_brief": "as §1"}, "[8]": {"molecular_target": "GalNAc(a1-3)GalNAc(a1-3)Gal(a1-4)Gal(b1-4)GlcNAc", "method_in_brief": "as §1"}, "[9]": {"molecular_target": "GalNAc(a1-3)GalNAc(b1-3)Gal(a1-4)Gal(b1-4)Glc", "method_in_brief": "as §1"}, "[10]": {"molecular_target": "GalNAc(a1-3)GalNAc(b1-3)Gal(a1-4)Gal(b1-4)GlcNAc", "method_in_brief": "as §1"}, "GalNAc(b1-3)Gal": {"molecular_target": "GalNAc(b1-3)Gal", "method_in_brief": "as §1"}, "[11]": {"molecular_target": "GalNAc(b1-3)Gal(a1-4)Gal(b1-4)GlcNAc", "method_in_brief": "as §1"}, "[12]": {"molecular_target": "GalNAc(b1-3)Gal(a1-4)Gal(b1-4)GlcNAc(b1-3)Gal(b1-4)Glc", "method_in_brief": "as §1"}, "[13]": {"molecular_target": "GalNAc(b1-3)Gal(a1-6)Gal(b1-4)Glc", "method_in_brief": "as §1"}, "GalNAc(b1-3)GalNAc": {"molecular_target": "GalNAc(b1-3)GalNAc", "method_in_brief": "as §1"}, "GalNAc(b1-3)GlcNAc": {"molecular_target": "GalNAc(b1-3)GlcNAc", "method_in_brief": "as §1"}, "GalNAc(b1-4)Gal(b1-4)Glc": {"molecular_target": "GalNAc(b1-4)Gal(b1-4)Glc", "method_in_brief": "as §1"}, "GalNAc(b1-4)GlcNAc": {"molecular_target": "GalNAc(b1-4)GlcNAc", "method_in_brief": "as §1"}, "[14]": {"molecular_target": "GalNAc(b1-4)GlcNAc(b1-2)Man", "method_in_brief": "as §1"}, "[15]": {"molecular_target": "GalNAc(b1-4)GlcNAc(b1-2)Man(a1-3)[GalNAc(b1-4)GlcNAc(b1-2)Man(a1-6)]Man(b1-4)GlcNAc(b1-4)GlcNAc", "method_in_brief": "as §1"}, "[16]": {"molecular_target": "GalNAc(b1-4)GlcNAc(b1-3)GalNAc(b1-4)GlcNAc", "method_in_brief": "as §1"}, "GalNAc(b1-4)GlcNAc6S": {"molecular_target": "GalNAc(b1-4)GlcNAc6S", "method_in_brief": "as §1"}, "GalNAc(b1-6)GalNAc": {"molecular_target": "GalNAc(b1-6)GalNAc", "method_in_brief": "as §1"}}, "note": "Some of the results follow.", "data": [{"binder": "GSL-I (Griffonia simplicifolia) (protein) FNLPNFWSDVKDNIIFQGDANTTAGTLQLCKTNQYGNPLQYRAGRALYSDPVQLWDNKTGSVASFYTEFTFFLKITGDGPADGLAFFLAPPDSDVKDAGAYLGLFNKSTATQPSKNQVVAVEFDTWKNTDFPEPSYRHIGINVNSIVSVATKRWEDSDIFSGKIATARISYDGSAKILTVVLSYPDGADYILSHSVDLSKNLPNPIRVGISASTGANQFLTVYVLSWRFSSALQSTSVNAAMGPEIIRTVV", "values": [{"measurement": "glycan array binding signal (z-score)", "setting": "[1]", "value": -0.136}, {"measurement": "glycan array binding signal (z-score)", "setting": "[2]", "value": -0.18}, {"measurement": "glycan array binding signal (z-score)", "setting": "[3]", "value": -0.133}, {"measurement": "glycan array binding signal (z-score)", "setting": "Gal(b1-4)GlcNAc6P", "value": -0.178}, {"measurement": "glycan array binding signal (z-score)", "setting": "Gal(b1-6)Gal", "value": -0.146}, {"measurement": "glycan array binding signal (z-score)", "setting": "Gal3S(b1-3)GalNAc", "value": -0.109}, {"measurement": "glycan array binding signal (z-score)", "setting": "Gal3S(b1-3)GlcNAc", "value": -0.206}, {"measurement": "glycan array binding signal (z-score)", "setting": "[4]", "value": -0.182}, {"measurement": "glycan array binding signal (z-score)", "setting": "Gal3S(b1-4)Glc", "value": -0.256}, {"measurement": "glycan array binding signal (z-score)", "setting": "Gal3S(b1-4)Glc6S", "value": -0.168}, {"measurement": "glycan array binding signal (z-score)", "setting": "Gal3S(b1-4)GlcNAc", "value": -0.215}, {"measurement": "glycan array binding signal (z-score)", "setting": "Gal3S(b1-4)GlcNAc6S", "value": -0.307}, {"measurement": "glycan array binding signal (z-score)", "setting": "[5]", "value": 0.066}, {"measurement": "glycan array binding signal (z-score)", "setting": "[6]", "value": -0.22}, {"measurement": "glycan array binding signal (z-score)", "setting": "[7]", "value": -0.094}, {"measurement": "glycan array binding signal (z-score)", "setting": "Gal3S4S(b1-4)GlcNAc", "value": -0.278}, {"measurement": "glycan array binding signal (z-score)", "setting": "Gal3S6S(b1-4)GlcNAc", "value": -0.289}, {"measurement": "glycan array binding signal (z-score)", "setting": "Gal3S6S(b1-4)GlcNAc6S", "value": -0.314}, {"measurement": "glycan array binding signal (z-score)", "setting": "Gal4S(b1-4)GlcNAc", "value": -0.242}, {"measurement": "glycan array binding signal (z-score)", "setting": "Gal4S6S(b1-4)GlcNAc", "value": -0.291}, {"measurement": "glycan array binding signal (z-score)", "setting": "Gal6P(b1-4)GlcNAc", "value": -0.274}, {"measurement": "glycan array binding signal (z-score)", "setting": "Gal6S(b1-3)GlcNAc", "value": -0.39}, {"measurement": "glycan array binding signal (z-score)", "setting": "Gal6S(b1-3)GlcNAc6S", "value": -0.249}, {"measurement": "glycan array binding signal (z-score)", "setting": "Gal6S(b1-4)Glc", "value": -0.163}, {"measurement": "glycan array binding signal (z-score)", "setting": "Gal6S(b1-4)Glc6S", "value": -0.232}, {"measurement": "glycan array binding signal (z-score)", "setting": "Gal6S(b1-4)GlcNAc", "value": -0.195}, {"measurement": "glycan array binding signal (z-score)", "setting": "Gal6S(b1-4)GlcNAc6S", "value": -0.195}, {"measurement": "glycan array binding signal (z-score)", "setting": "GalNAc(a1-3)Gal", "value": 6.1}, {"measurement": "glycan array binding signal (z-score)", "setting": "GalNAc(a1-3)GalNAc", "value": 2.08}, {"measurement": "glycan array binding signal (z-score)", "setting": "[8]", "value": 1.85}, {"measurement": "glycan array binding signal (z-score)", "setting": "[9]", "value": 1.18}, {"measurement": "glycan array binding signal (z-score)", "setting": "[10]", "value": -0.493}, {"measurement": "glycan array binding signal (z-score)", "setting": "GalNAc(b1-3)Gal", "value": -0.13}, {"measurement": "glycan array binding signal (z-score)", "setting": "[11]", "value": -0.22}, {"measurement": "glycan array binding signal (z-score)", "setting": "[12]", "value": -0.176}, {"measurement": "glycan array binding signal (z-score)", "setting": "[13]", "value": -0.191}, {"measurement": "glycan array binding signal (z-score)", "setting": "GalNAc(b1-3)GalNAc", "value": -0.272}, {"measurement": "glycan array binding signal (z-score)", "setting": "GalNAc(b1-3)GlcNAc", "value": -0.26}, {"measurement": "glycan array binding signal (z-score)", "setting": "GalNAc(b1-4)Gal(b1-4)Glc", "value": 0.342}, {"measurement": "glycan array binding signal (z-score)", "setting": "GalNAc(b1-4)GlcNAc", "value": -0.089}, {"measurement": "glycan array binding signal (z-score)", "setting": "[14]", "value": -0.143}, {"measurement": "glycan array binding signal (z-score)", "setting": "[15]", "value": 0.254}, {"measurement": "glycan array binding signal (z-score)", "setting": "[16]", "value": -0.174}, {"measurement": "glycan array binding signal (z-score)", "setting": "GalNAc(b1-4)GlcNAc6S", "value": -0.287}, {"measurement": "glycan array binding signal (z-score)", "setting": "GalNAc(b1-6)GalNAc", "value": -0.335}]}]}
